Experimental data as given in PubChem BioAssay AID1508624 (National Center for Advancing Translational Sciences (NCATS), 2021).
Screen size: about 48,000 compounds; about 120 (0.25%) were called active. Another 4% or so got no clear call; they are omitted. The call rests on the fitted dose curve; in most records, active means well fitted activation curve with a large enough effect; inconclusive means small, poorly fitted or top-dose-only effect, or another doubt; inactive means no such curve, though single readings can be large or run the other way. The list shows a part of the results.

Experiment: Primary qHTS for Identification of Small Molecule Activators of Huntingtin-Antisense Promoter Activity; further: nearly all actives have a fitted effect of over 55% in size
Conditions: HEK293 HTT-AS promoter firefly luciferase reporter (activity 0% = vehicle and -100% = no light), 24 h; series mostly up to 57.5 µM; activity change, positive = activation: at the top concentration
How it was run: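 Firefly luciferase readout (Dual-Glo, 10 min RT) after 24 h, 37 °C compound exposure (final up to 57.5 uM) of HEK293 reporter cells cultured 24 h beforehand; PTC124 at 50 uM final as control inhibitor; activity scaled vehicle 0%, zero RLU -100%.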

Activity change, positive = activation, inactive:
CCC1CCCCN1S(=O)(=O)c1cc2c3c(c1)CC(=O)N3CCC2 (configuration not stated) -9.6%, CCOC(=O)c1c(C)[nH]c(C)c1S(=O)(=O)N1CCC(C(=O)NCc2cccc(OC)c2)CC1 -1.37%, COc1ccc(S(=O)(=O)N2Cc3ccccc3CC2C(=O)Nc2ccc(C)cc2C)cc1OC (configuration not stated) -9.32%, CCC(C(=O)O)n1ccc2cc(S(=O)(=O)N3CCCCC3)ccc21 (configuration not stated) -12.9%, CCOC(=O)c1c(C)oc2ncnc(Nc3cc(C)cc(C)c3)c12 -6.8%, O=C(NCCCN1CCN(c2cccc(Cl)c2)CC1)c1cnn(-c2ccc(F)cc2)c1-n1cccc1 -39.6%, O=C(NCCc1csc2nc(-c3ccccc3F)nn12)C(=O)Nc1cc(F)ccc1F 3.06%, CCC1=C(c2ccc(C)cc2)S(=O)(=O)N=C1N1CCC(C(=O)NCc2ccc(N(C)C)cc2)CC1 -40.2%, CCN1C(=O)c2ccccc2Sc2ccc(NC(=O)Nc3cccc([N+](=O)[O-])c3C)cc21 -45.8%, Cc1ccc(N2CC(NC(=O)c3cccc(Cl)c3)CC2=O)cc1C (configuration not stated) -16.9%, COc1ccc(N(C(=O)c2ccc(C(C)(C)C)cc2)S(=O)(=O)c2ccc(Cl)cc2)cc1 -9.41%, COc1ccc(CNC(=O)c2cnn3c(C)c(Cc4c(F)cccc4Cl)c(C)nc23)cc1 -4.94%, COc1cc(O)cc(O)c1 -3.58%, Cc1cccc(N2CCN(C(=O)c3cnc(N4CCCC4)nc3C)CC2)c1C -14.8%, COc1ccc(C2c3c(n(C)c4ccccc34)C(=O)N2CC(=O)Nc2cccc(Cl)c2C)cc1 (configuration not stated) -18.9%, CCc1ccccc1Nc1sc(C(=O)c2cccc(OC)c2)c(N)c1S(=O)(=O)c1ccccc1 -27.9%, CC1CCCN(C(=O)Cn2ncc3c([nH]c4ccccc43)c2=O)C1 (configuration not stated) -15.9%, CCCCOc1ccc(C(=O)NCc2nnnn2-c2ccc(C)c(C)c2)cc1 -14.8%, COC(=O)c1c(NC(=O)/C(C#N)=C/c2ccccc2)sc2c1C(C(=O)OC)CC2 (configuration not stated) 7.97%, CCCn1c(CN2CCN(c3ccc(OC)cc3)CC2)nc2c1c(=O)[nH]c(=O)n2C -4.76%, COc1cc(-c2cc3n(C)c(C)c(CCC(=O)O)c(=O)n3n2)cc(OC)c1OC 0.92%, CCOc1ccc(NC(=O)C2CCN(C(=O)N3CC(C)Oc4ccc(Cl)cc43)CC2)cc1 (configuration not stated) -32.2%, Cc1cc2oc(C(=O)Nc3ccc(S(=O)(=O)N(C)Cc4ccccc4)cc3)cc(=O)c2cc1C -6.13%, CC(C)CC(=O)Nc1nnc(S(=O)(=O)N(CC(C)C)c2ccccc2)s1 -12.2%, Cc1ccc(CNC(=O)CCC(=O)N2CC3CCCN3c3ccccc32)cc1 (configuration not stated) 4.93%, Cn1c(=O)c2c(ncn2CC2OCCO2)n(C)c1=O 3.04%, O=C(Nc1ccc2oc(-c3cc(Br)ccc3Cl)nc2c1)c1cc2ccccc2o1 -43.4%, Cc1ccc(N2CCN(C(=O)C3CCN(S(=O)(=O)c4ccc5c(c4)oc(=O)n5C)CC3)CC2C)cc1 (configuration not stated) -36.2%, CC(=O)c1ccc(NC(=O)CCc2c(C)nn(-c3ccc(N4CCOCC4)nn3)c2C)cc1 16.8%, Cc1cc(C)c(S(=O)(=O)NCCc2cc3ccc(C)c(C)c3[nH]c2=O)c(C)c1 -4.67%, O=c1c2sc3ccccc3c2n(Cc2cccc(Cl)c2)c(=O)n1Cc1ccco1 -31%, Cc1ccccc1OCCn1c(=N)n(C(C)C)c2ccccc21 -20.9%, Cc1cc(C)cc(-n2c(C)nc3cc(C(=O)O)ccc32)c1 -3.42%, Cc1cccc(OCc2nc(CC(=O)Nc3ccc(C)c(C)c3)cs2)c1 -3.3%, CCOc1ccc(NC(=O)CCc2c(C)nc3nc(C)nn3c2C)cc1 -7.33%, CCOC(=O)c1c(C)oc2nc(C)nc(NCCCN3CCN(c4ccccc4)CC3)c12 -19.9%, COC(=O)C(CCSC)NC(=O)C1CCN(c2ncnc3c2nc2n3CCCCC2)CC1 (configuration not stated) 13.4%, Fc1ccc(-n2ncc3c(NC4CCCCCC4)ncnc32)cc1 33.7%, CCNC(=O)CC1C(=O)N(c2ccc(F)cc2)C(=O)N1CCOC (configuration not stated) 4.16%, COc1ccccc1CNC(=O)c1ccc(Cn2c(SCc3ccccc3)nc3cccnc32)cc1 -1.57%, CCOc1ccc(C(=O)N2CCC(c3nnc(-c4ccccc4OC)o3)CC2)cc1 13.8%, CCCCCCCC(=O)OCC(COC(=O)CCCCCCC)OC(=O)CCCCCCC -3.26%, N#Cc1ccccc1CN1C(=O)c2ccccc2Sc2ccc(C(=O)OCc3ccco3)cc21 -41.7%, O=C(CCc1ccccc1)NCc1nc2cccnc2n1Cc1ccc(F)cc1 -7.43%, CCOC(=O)N1CCc2c(sc3c2c(=O)n(-c2ccccc2)c(=O)n3CC(=O)Nc2ccc(OC)cc2OC)C1 21.8%, COc1ccc(NC(=O)CN2CCN(Cc3ccccc3)S2(=O)=O)c(OC)c1 -0.689%, CCOc1ccc(OCC)c(NC(=O)c2cc(S(=O)(=O)N3CCCC3)cn2C)c1 -19.3%, CCc1ccccc1N1CC(c2nc3ccccc3n2CCCOc2ccc(Cl)cc2)CC1=O (configuration not stated) 7.08%, COc1cc(OC)c(NC(=O)c2csc3c2CCC(C)C3)cc1Cl (configuration not stated) 1.67%, CCOc1ccccc1NC(=O)Cn1c(=O)n(CCC(=O)NCc2ccc3c(c2)OCO3)c(=O)c2ccccc21 -5.23%, COc1ccccc1CNC(=O)c1cc2cc3ccc(Cl)cc3nc2o1 -9.65%, COc1ccc(CCNC(=O)CCc2c(C)nc3c(c(C)nn3-c3ccc(C)c(C)c3)c2C)cc1OC -8.35%, COc1ccccc1N1CCN(c2ccc(NC(=O)c3ccc(C)cc3)cc2C(=O)O)CC1 6.81%, Cc1c(CNC2CCCCC2)c(C(=O)O)c(C)n1Cc1c(F)cccc1Cl -10.1%, Cc1ccc(NC(=O)CCCn2c(=O)c3cccn3c3ccccc32)c(Cl)c1 5.78%, CCOc1ccc(NC(=O)C(CC)n2c(=O)c(-c3ccccc3NC(C)=O)nc3ccccc32)cc1 (configuration not stated) -34.4%, Cc1ccc(CNC(=O)Cn2cc(S(=O)(=O)Cc3ccccc3Cl)c3ccccc32)cc1 -39.4%, O=C(CCOc1ccccc1)N(Cc1cccnc1)c1nc2c(F)cc(F)cc2s1 -28.4%, COc1ccc(CNC(=O)c2cnc3sc(N4CCOCC4)nn3c2=O)cc1 -9.62%, COc1cc(OC)c(NC(=O)N2CCSc3ccccc32)cc1Cl -38.7%, COc1ccc(C(=O)Nc2cc3c(cc2C(=O)c2ccccc2Cl)OCCO3)cc1 -8.76%, O=C(CSC1=Nc2ccccc2C2=NC(CCC(=O)NC3CCCCC3)C(=O)N12)Nc1cccc(C(F)(F)F)c1 (configuration not stated) -27.7%
